In the data set the test system is ATP. Put plainly: switch fluorescence ratio, 500 uM ATP over buffer (Cy3 cluster intensity, sum of 5 cycles each) (fold (ratio)); higher = stronger signal-on switching upon ATP binding; sequences stand for … in TCGTCGGCAGCGTCAGATGTGTATAAGAGACAGTTTTTTTTTTTTTTTTTTTTTTTTT…TC. Particulars: aptamer strand: ATP DNA aptamer (quencher-CACCTGGGGGAGTATTGCGGAGGAAGG + anchor), 100 nM annealed; ATP concentration: 500 uM; one replicate. The procedure, abridged: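 The fluorescence ratio divides summed target-cycle Cy3 intensity by summed buffer-cycle Cy3 intensity for each cluster and is averaged per switch-domain sequence. Cy3-labelled switching-strand clusters on a modified Illumina MiSeq flow-cell were annealed to 100 nM quencher-labelled ATP aptamer, then imaged in selection buffer and again after 15 min with 500 uM ATP at 22 °C. Five such cycles were run, with NaOH stripping and re-annealing between them, and clusters outside 100-1000 RFU were excluded.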

Values marked as one replicate rest on one cluster of the flow cell; about a third of the high ones do not repeat.
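Note: ATP exposure 15 min at 22 °C before imaging.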

Turning to GTAGCCGCAT, the switch fluorescence ratio is 1.07.
On to AAGGGTACTT, for which the switch fluorescence ratio is 1.13.
The result for ACAGCTTTTG reads 1; that for TGTCTAGGGG, 0.99; that for ACGTCTATGA, 1.05.
Under TTGGAGTAGC stands 0.997; under TCGCGCTGAG, 1.02; under TTGTAGCGCT, 0.982.
The result for TGCATAGTGT reads 0.971; that for TGCGCGTGAT, 0.982.
In the case of TTTTACTCTC, the switch fluorescence ratio came to 1.07.
The result for CGATGACTCT reads 0.966.
As for AAACATAGTA, the switch fluorescence ratio was 1.02.
GAACTATTTG: the switch fluorescence ratio came out at 1.
The result for CCAGGATCCT reads 1.01; that for AAAAGCGGAA, 0.992; that for CTACCCTGTG, 1.24.
The result for AAGGCGGGCA reads 1.03; that for TCTCCTAATG, 1.11; that for TTAGGGCCTG, 1.02.
Under TTTTCAGCCT stands 1.07.
As for AGTTTACATG, the switch fluorescence ratio was 1.
The result for GCCAAACATT reads 1.02.
Under GCCGTGAGGA stands 0.992; under CCCTGGTTCG, 1.03; under GCTCACCTTT, 1.02.
Under TACCAGTTTG stands 1.05; under ATCGACACAG, 0.995; under ACAGAGCTTG, 1.02.
TACCAGGATG: the switch fluorescence ratio came to 1.28.
Under TGTGTTATGC stands 1.02.
Regarding AACCCTTTTC, the switch fluorescence ratio turned out to be 1.09.
The result for AGCTTTTTCG reads 1.01.
With CGCGCAACGA, the switch fluorescence ratio amounted to 1.06.
Under CACATTCATT stands 1.02.
The result for TTAACCGGAT reads 0.95; that for CTGGTATTCC, 1.02; that for TAGATACGCT, 1.01.
Take AGCGTTCCGA: the switch fluorescence ratio was 1.2.
For the sequence GCACCCTGGT, the switch fluorescence ratio amounted to 1.05.
Under GAGCAATGCA stands 2.3; under GAGATATATT, 0.985.
For the sequence AATCAGAAGG, the switch fluorescence ratio stood at 1.02.
As for GTAATTTTTG, the switch fluorescence ratio was found to be 0.979.
Under TTTGAGTTG stands 1.04.
Under TTACACATTT stands 1.02; under CTGATGTAAA, 1.03; under CCCCGTACGC, 3.08.
In the case of ACCAGTCGGC, the switch fluorescence ratio worked out at 0.961.
For the sequence ATTCTGCGAG, the switch fluorescence ratio is 1.01.
The result for TTTGCTGAAG reads 0.99; that for CGCACGTAG, 1.05.
Take CTGCCTCAGT: the switch fluorescence ratio was found to be 1.11.
In the case of TAACCA, the switch fluorescence ratio turned out to be 1.04.
Under GGTCCAGAGC stands 1.04; under TTTATGTGCC, 0.986.
The result for AACGGCCCAT reads 1.01; that for AAGGCGGCTA, 1.03.
For CGTGAGCAGA, the switch fluorescence ratio amounted to 1.04.
The result for TATACGTCGA reads 1.05.
Take ACTAGTCTCC: the switch fluorescence ratio amounted to 1.06.
The result for AAACATTTAG reads 0.993; that for AATTGTCCCT, 0.999.
The result for TTGGGCTTAG reads 0.984; that for ATAGAGGCT, 0.965; that for GTCCGGCTAT, 1.07.
TGCTTTCATA: the switch fluorescence ratio came to 1.02.
As to GCTCCTTCAA, the switch fluorescence ratio is 1.8.
The result for TTCATTGCTC reads 1; that for CGGACCCTAA, 1.08; that for TCGCAACGTG, 1.03.
Regarding CGTATATTCT, the switch fluorescence ratio was 1.05.
Under GAAAGTCTCT stands 1.01; under CGATTATGG, 0.983; under CGTACTCCAG, 0.965.
The result for TTTACCACCC reads 1.15; that for GGTGTATAC, 1.04.
The result for GTTACACGCG reads 0.965; that for CTCGATGTCT, 0.997.
With CGATGGTACT, the switch fluorescence ratio amounted to 1.07.
Under TGTAAGTCCT stands 0.989; under GATTACTC, 1.04.
Turning to AGATCTTGGT, the switch fluorescence ratio stood at 1.01.
Under TGGGCCCCGT stands 1.02; under TGTGTGTTCT, 1.02; under GATTAATTCC, 1.04.
Take TTGAGCAAT: the switch fluorescence ratio is 1.91.
With TTCAGGCATA, the switch fluorescence ratio was found to be 1.03.
Consider CCTTGCATAG, for which the switch fluorescence ratio is 4.28.
With ATTTGTGCTT, the switch fluorescence ratio was 0.978.
The result for CTTGGTTTA reads 0.958; that for GCATGCGTCT, 0.978.
The result for TGTAGGGGA reads 0.931; that for AGTGACCGCG, 0.92; that for CCCGATAATT, 1.07.
Under GTGCATTCAC stands 1.04; under TGGTCTAGGC, 0.979.
For TGTATAGGTT, the switch fluorescence ratio is 0.968.
Under GCTCTGCATC stands 2.08; under ATGTGACAGG, 0.996; under TAGTTCGTTC, 0.998.
AGCTGTTAAC: the switch fluorescence ratio was 1.05.
The result for CATCACTTCT reads 1.04.
The result for AGGGGCGTTG reads 0.994; that for AGCCAACCCC, 1.2.
Under ACGCGTGGAG stands 1.07.
Consider ATCCACCTCT, for which the switch fluorescence ratio turned out to be 1.05.
On to GGCCTAGTCT, for which the switch fluorescence ratio turned out to be 1.19.
As to AGTATGCGTC, the switch fluorescence ratio amounted to 1.06.
For the sequence CGCTACTCGG, the switch fluorescence ratio is 1.64.
The result for ACTATATGTT reads 1; that for ATGTTCTAAT, 0.987.
Turning to TAGTTGTTCA, the switch fluorescence ratio is 1.02.
Under CAATAAGTCG stands 0.974.
The result for TTTCCTACGG reads 1.24; that for CAAGAATCTT, 0.996.
Regarding ATTAAGCA, the switch fluorescence ratio came to 1.01.
As for TAGCAAATTC, the switch fluorescence ratio stood at 1.88.
As to AGCCAATTAA, the switch fluorescence ratio amounted to 1.03.
For the sequence CGGCATTGGA, the switch fluorescence ratio worked out at 0.964.
